# Reference: PubChem BioAssay AID493208 (National Center for Advancing Translational Sciences (NCATS), 2011)
# The campaign covered roughly 44,000 compounds. About 340 (0.77%) were called active. Not shown: some 5% with an inconclusive outcome. Calls come from the whole dose curve; as a rule, active = well fitted inhibition curve with a large enough effect; inconclusive = small, poorly fitted or top-dose-only effect; inactive = flat fitted curve, though single readings scatter. The list shows a part of the results.
# Assay: Acumen qHTS Assay for Inhibitors of the mTORC1 Signaling Pathway in MEF (Tsc2-/-, p53-/-) Cells: Sytravon;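 note: plate controls were DMSO for no effect and rapamycin for full effect; nearly all actives have a fitted effect of over 50% in size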
# Conditions: phospho-rpS6 immunofluorescence/PI, 24 h; series mostly up to 38.3 µM; activity change, negative = inhibition: at the top concentration
# In short: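 Tsc2-/-, p53-/- mouse embryonic fibroblasts (empty-vector line) exposed to compound 24 hrs at 37 C, fixed, immunostained for phospho-rpS6 and counterstained with propidium iodide. Acumen laser scanning gives % positive cells from Alexa 488/PI ratio, thresholded using 7.5 nM rapamycin; PI count gives viability.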
row,SMILES,"activity change, negative = inhibition"
1,CCC(=O)N1CCc2cc(S(=O)(=O)CCC(=O)NCc3cccc(OC)c3)ccc21,inactive: 2.28%
2,Cc1cccc(Cn2c(SCc3ccc(C(=O)NC4CCCCC4)cc3)nc3ccncc32)c1,inactive: -0.917%
3,COc1ccc(NC(=O)c2c(C)oc3ccc(O)c(CN4CCN(Cc5ccccc5)CC4)c23)cc1,inactive: -25.5%
4,Cc1ccc2c(c1)-c1c(cnn1CC(=O)Nc1ccccc1C#N)CO2,inactive: -7.62%
5,CC(=O)N1CCCc2cc(S(=O)(=O)N3CCCC(C(=O)N4CCN(c5cc(C)ccc5C)CC4)C3)ccc21 (centres undefined),inactive: -12.4%
6,Cc1ccc(OC(=O)CSc2nnc(CNC(=O)c3ccccc3)o2)cc1,inactive: -9.83%
7,CCc1ccc(C2=NN(CCC(=O)NCCc3ccc(Cl)cc3)C(=O)CC2)cc1,inactive: -5.77%
8,Cc1ccc(C(=O)COC(=O)CCC(=O)Nc2ccc(Oc3cc(C)ccc3C(C)C)cc2)cc1,inactive: 0.578%
9,O=C(NCC(c1ccccc1)c1ccccc1)c1nn(-c2ccccc2F)nc1CO,inactive: -4.79%
10,CCCn1c2ccccc2c2cnn(CC(=O)NC(CCSC)C(=O)OC)c(=O)c21 (centres undefined),inactive: -5.83%
11,Cc1ccc(CCNC(=O)CCSCc2ccccc2Cl)cc1,inactive: 9.22%
12,CCOC(=O)c1nnc2c(-c3ccc(Cl)cc3)c(C)nn2c1C,inactive: -1.5%
13,Cc1c(C(=O)NCCN(C)C)sc2nc3n(c(=O)c12)CCC3,inactive: 2.66%
14,Cc1cc(C)cc(NC(=O)Cn2c3ncccc3c(=O)n2-c2ccc(C)c(C)c2)c1,inactive: -2.88%
15,O=C(NCc1ccccc1)c1ccc2c(c1)nc1n2CCCCC1,inactive: 0%
16,Cc1ccc(CSc2ncc(Cl)c(C(=O)Nc3sc4c(c3C(N)=O)CCCC4)n2)cc1,inactive: -7.62%
17,O=C(Cn1cnc2nc3c(cc2c1=O)CCCC3)N1CCN(c2ccccc2)CC1,inactive: -7.07%
18,Cc1cccc(N2CCN(Cc3nnc(-c4ccc5c(c4)OCO5)o3)CC2)c1C,inactive: -19.4%
19,CCc1nn2c(=O)cc(COc3ccc(/C=C(\C#N)C(=O)Nc4ccc(C)cc4)cc3)nc2s1,inactive: -8.08%
20,CCc1ccc(NC(=O)Cn2c(=O)n(CC3CCCO3)c(=O)c3cc(OC)c(OC)cc32)cc1 (centres undefined),inactive: -7.64%

row,SMILES,"activity change, negative = inhibition"
1,O=C(Cn1c(=O)c2cccn2c2ccc(F)cc21)N1CCN(c2ccccc2)CC1,inactive: 0%
2,Cc1ccc(-c2cc(C(F)(F)F)c(C#N)c(SCC(=O)O)n2)cc1,inactive: -13.9%
3,COc1ccc(NC(=O)Nc2ccccc2OCc2cc(=O)n3ccccc3n2)c(OC)c1,inactive: 0%
4,Cc1ccccc1CNC(=O)C(=O)NCC(c1cccs1)S(=O)(=O)c1ccc(Cl)cc1 (centres undefined),inactive: 1.63%
5,O=C(CN1C(=O)C2CCCCN2c2ccc(C(=O)N3CCCC3)cc21)NCc1cccc(F)c1 (centres undefined),inactive: 0.873%
6,COCCN1Cc2cccc(C(=O)Nc3ccc(Cl)cc3Cl)c2C1=O,inactive: -8.63%
7,CCN(CC)c1ccc(NC(=O)CN2C(=O)c3cccnc3Sc3ccccc32)c(C)c1,inactive: -1%
8,CC(=O)N1CCc2c(sc3c2c(=O)n(CCc2ccccc2)c(=O)n3Cc2cccc(C)c2)C1,inactive: -0.0801%
9,CCOc1cc(C2C(C(=O)OC)=C(C)NC3=C2C(=O)c2ccccc23)c(Br)cc1O (centres undefined),inactive: -5.84%
10,CC(=O)N1c2ccc(S(=O)(=O)N3CCN(c4cccc(Cl)c4)CC3)cc2CC1C (centres undefined),inactive: -8.23%
11,CC(C)NC(=O)Cn1nc(N2CCN(c3ccccc3)CC2)ccc1=O,inactive: 5.64%
12,COc1ccc2oc(-c3ccc(C)c(NC(=O)CSc4ccc(Cl)cc4)c3)nc2c1,inactive: -10.4%
13,Cc1ccc(-c2c3c(=O)n(C)c(=O)n(C)c3cn2-c2cc(C)ccc2O)cc1,inactive: -0.728%
14,COc1ccc(N2CCN(C3C(=O)c4ccccc4N3C(C)=O)CC2)cc1 (centres undefined),inactive: 7.16%
15,Cc1c(Cl)cccc1NC(=O)CSc1nc(=O)n(Cc2cccnc2)c2c1CCC2,inactive: -2.95%
16,Cc1c(Cl)cccc1-n1ncc(C(=O)Nc2ccc(F)cc2F)c1C1CCN(C(=O)OC(C)(C)C)CC1,inactive: -3.24%
17,Cc1cc(Cl)ccc1NS(=O)(=O)c1ccc2c(c1)CC(C)N2C(=O)C1CCC1 (centres undefined),inactive: 0%
18,O=C1CC(c2nc(-c3ccccc3)no2)CN1c1ccc2c(c1)OCCO2 (centres undefined),inactive: -8.37%
19,COC(=O)C1CCN(C(c2ccccc2)c2sc3nc(-c4ccco4)nn3c2O)CC1 (centres undefined),inactive: -1.42%
20,Cc1ccc(Cn2cc(S(=O)(=O)c3ccc(C)cc3)c(=O)c3cc(F)c(N4CCCC4)cc32)cc1,inactive: -0.406%

row,SMILES,"activity change, negative = inhibition"
1,Cc1ccc(CNC(=O)C2CCN(C(=O)c3cnn(-c4ccccc4)c3-n3cccc3)CC2)cc1,inactive: 1.65%
2,CCOc1cccc(NC(=O)c2ccc(F)c(S(=O)(=O)N(CC)c3cccc(C)c3)c2)c1,inactive: 1.48%
3,COc1ccc2c(c1)CC(C(=O)NCCN1CCN(c3cccc(C)c3C)CC1)CO2 (centres undefined),inactive: 1.43%
4,CC(C)CCNC(=O)Nc1cc(C(=O)NCc2cccc(F)c2)ccc1N1CCCC1,inactive: 4.28%
5,COc1ccc2c(c1)c1c(c(=O)n(Cc3ccccc3)c(=O)n1CC(=O)Nc1ccc(C)cc1C)n2C,inactive: -1.49%
6,O=C(C1CCN(S(=O)(=O)Cc2ccccc2)CC1)N1CCN(c2cccc(Cl)c2)CC1,inactive: -1.32%
7,O=C(Nc1nnc(S(=O)(=O)N2CCCCCC2)s1)c1ccccc1Br,inactive: 7.26%
8,Cc1ccc(NC(=O)C2CCCN(S(=O)(=O)c3c(C)n[nH]c3C)C2)cc1C (centres undefined),inactive: -11.3%
9,CSc1cccc(NC(=O)C2CCN(S(=O)(=O)c3ccc4[nH]c5c(c4c3)CCCCC5)CC2)c1,inactive: -1.8%
10,CCOC(=O)c1ccc(CN(Cc2ccc(C)cc2)S(=O)(=O)c2ccc(NC(C)=O)cc2)cc1,inactive: -18.2%
11,COCCCNC(=O)CN1C(=O)CSc2ccc(S(=O)(=O)N3CCOCC3)cc21,inactive: -3.53%
12,CCn1cc2nc(SCc3ccc(F)cc3)n(Cc3ccc(Cl)cc3)c(=O)c2n1,inactive: 6.59%
13,CCCS(=O)(=O)N1CC(=O)N(c2ccc(Cl)cc2)C(C)(C(=O)NC2CCCC2)C1 (centres undefined),inactive: -1.43%
14,CC(=O)Nc1ccc(Nc2nnc(-c3ccc(C)c(S(N)(=O)=O)c3)c3ccccc23)cc1,inactive: 5.22%
15,Cc1ccc(NC(=O)c2oc3ccc(S(=O)(=O)N4CCC5(CC4)OCCO5)cc3c2C)c(C)c1,inactive: -4.41%
16,COCCn1c(SCC(=O)Nc2ccc(C(F)(F)F)cc2)nc2c([nH]c3ccccc32)c1=O,inactive: 1.58%
17,Cc1ccc(NC(=O)C(=O)NCCc2csc3nc(-c4ccccc4C)nn23)cc1Cl,inactive: -0.892%
18,O=C(NCc1ccc2c(c1)CCN2C(=O)c1ccccc1)c1ccco1,inactive: 0.566%
19,O=C(Nc1ccc(S(=O)(=O)N(Cc2ccccc2)c2ccccc2)cc1)c1ccc([N+](=O)[O-])cc1,inactive: -3.56%
